The whole screen tested about 150,000 compounds, of which about 540 (0.36%) showed an effect of 50% or more. The list shows a part of the results.

This test concerns Plasmodium falciparum. Briefly: Primary screen in NF54 nanoGlo assay, in single point, at 2uM, 72h; a lower Z score goes with more inhibition. The class given is functional, Erythrocyte. Conditions: timepoint 72 hour.
What is called % Inhibition is the change of the read-out against control, counted positive when it falls. Consider `CC(C)(C)C(=O)NCCC(=O)N1CCN(Cc2csc(-c3ccco3)n2)CC1`, for which the “% Inhibition” value stood at 11% and the Z score is listed as -1.5.

In the case of `Nc1ccccc1-c1nc(C2CCCCCC2)no1`, the “% Inhibition” value is given as -18% and the Z score amounted to 1.83.

With `Cc1c(-c2cnn(C)c2)cc(C#N)n1C(F)F`, the “% Inhibition” value was -7% and the Z score turned out to be 1.32.

Consider `CCc1ccc(CN(C)c2cc(C3CC(N)C3)nc(N(C)C)n2)nc1` (stereo unspecified), for which the “% Inhibition” value turned out to be 8% and the Z score was -1.04.

On to `CCn1ncc(-c2nc3c([nH]2)c(C)nn3Cc2cccc(Cl)c2)c1C`, for which the “% Inhibition” value was determined as 2% and the Z score is listed as -0.42.

Turning to `CCc1cccc(NC(=O)CN(CC)[C@@H](C)CS(=O)(=O)CC)c1`, the “% Inhibition” value is reported as 4% and the Z score is on record as -0.52.

`Cc1conc1NS(=O)(=O)Cc1cc(Cl)ccc1F`: the “% Inhibition” value is on record as -9% and the Z score is 0.9.

Regarding `COc1ccc(CC(=O)Nc2n[nH]c(CCCc3c[nH]c4ccccc34)n2)cc1`, the “% Inhibition” value is listed as -21% and the Z score was found to be 3.11.

Regarding `Cc1ccc(CN(C)C(=O)[C@H]2CC(=O)N(C3CC3)C2)o1`, the “% Inhibition” value is -5% and the Z score is 0.69.

Take `CN(C)C(=O)NCCNS(=O)(=O)C[C@H]1CC(C)(C)CO1`: the “% Inhibition” value was -3% and the Z score was found to be 0.41.

`Cc1cccc(N2CCN(C(=O)Nc3ccc(N4CCCC4)c(F)c3)[C@@H](C)C2)n1`: the “% Inhibition” value is given as -9% and the Z score was determined as 1.08.

With `CCN(CC)C(=O)NC1CCN(C(=O)OC)CC1`, the “% Inhibition” value is -6% and the Z score is 0.82.

In the case of `Cc1nonc1CN(C)Cc1nc(-c2ccoc2)oc1C`, the “% Inhibition” value is reported as -7% and the Z score is listed as 1.41.

Regarding `COc1ccccc1CC(=O)N1CC(Nc2ccncn2)C1`, the “% Inhibition” value is 8% and the Z score is on record as -0.92.

For the molecule `CC1CC(C)CN(C(=O)CN(CCC#N)Cc2ccccn2)C1` (stereo unspecified), the “% Inhibition” value is listed as -2% and the Z score amounted to 0.19.

Consider `CCOc1ccccc1N1C(=O)N2CC(c3ccccc3OC)c3c([nH]c4ccccc34)[C@@]2(C)C1=O` (stereo partly specified), for which the “% Inhibition” value is given as 3% and the Z score is on record as -0.33.

As to `Cc1cc(C)c(C#N)c(N2CCCn3cncc3C2)n1`, the “% Inhibition” value was -8% and the Z score worked out at 1.44.

Consider `O=C(c1c[nH]c(=O)c(Cl)c1)N1CCc2[nH]nc(-c3ccc4c(c3)OCO4)c2C1`, for which the “% Inhibition” value is given as -11% and the Z score came to 1.88.

On to `Cc1c(NC(=O)c2ccccc2NS(=O)(=O)c2ccc(Cl)cc2)c(=O)n(-c2ccccc2)n1C`, for which the “% Inhibition” value is listed as 15% and the Z score is listed as -1.74.

Regarding `O=C(c1ccc(O)c(Cl)c1)N1CCC(O)(CN2CCCC2)CC1`, the “% Inhibition” value is reported as -5% and the Z score was determined as 0.92.

As to `CC(C)c1cc(C(=O)N[C@H]2CCCN(C3CCCCC3)C2=O)no1`, the “% Inhibition” value is recorded as 3% and the Z score is reported as -0.39.

Consider `Cc1ccc(S(=O)(=O)c2c(C(=O)N3CCCCC3)cnc3ccc(F)cc23)c(C)c1`, for which the “% Inhibition” value is listed as -23% and the Z score amounted to 2.23.

As to `CCOc1ccc(NS(=O)(=O)c2cc(C(=O)Nc3ccc(-n4cncn4)nc3)ccc2Cl)cc1`, the “% Inhibition” value is -36% and the Z score is recorded as 5.04.

As for `Cc1noc([C@H]2CCCN(C(=O)c3noc4c3CCCC4)C2)n1`, the “% Inhibition” value is on record as -2% and the Z score is 0.38.

For the molecule `CCOC(=O)c1csc([C@@H]2CCCN2Cc2nc(C)no2)n1`, the “% Inhibition” value is -6% and the Z score is 0.69.

As to `C[C@H](NC(=O)NC1(CO)CCCCCC1)c1ccc(F)cc1F`, the “% Inhibition” value is -20% and the Z score was 2.04.

`Cc1ccc(OCC(=O)N2CCC(n3nc(C4CC4)ccc3=O)CC2)c(C(C)(C)C)c1`: the “% Inhibition” value is given as -17% and the Z score is 1.97.

`CNc1nc(C)cc(NCc2cc3cc(OC)ccc3[nH]2)n1`: the “% Inhibition” value is on record as -3% and the Z score is listed as 0.71.

On to `CC(C)(C)c1ccc(C(O)CNC(=O)CC2CCCO2)cc1` (stereo unspecified), for which the “% Inhibition” value is 6% and the Z score was -0.64.

For `C[C@@H](C(N)=O)N1CCOc2c(O)cc(-c3ccc(Cl)cn3)cc2C1`, the “% Inhibition” value was -11% and the Z score came out at 2.11.

For the molecule `Cc1nn(C)cc1CNc1nc2cc(C(F)(F)F)ccc2s1`, the “% Inhibition” value is on record as -8% and the Z score worked out at 0.93.

`CC(C)(C)[C@H](NC(N)=O)C(=O)Nc1ccsc1`: the “% Inhibition” value is listed as -13% and the Z score was determined as 1.27.

Take `O=C(NCc1ccncc1)c1ccc2c(=O)n(-c3cccc(Cl)c3)cnc2c1`: the “% Inhibition” value is listed as -13% and the Z score is recorded as 1.56.

As for `CCc1nnc2cc(N3CCN(Cc4cccs4)CC3)cnn12`, the “% Inhibition” value is listed as -7% and the Z score turned out to be 1.18.

Consider `CN1C(=O)CN(CC(=O)N2CC[C@H]2c2ccc(F)cc2)C(=O)c2ccccc21`, for which the “% Inhibition” value is 6% and the Z score was -0.98.

For the molecule `CC(C)CC(C)(CC(=O)O)C(=O)N1CCCC1C1CCOCC1` (stereo unspecified), the “% Inhibition” value was -14% and the Z score was found to be 1.48.

`CC1(C)C(=O)NCCN1C(=O)c1ccc(-c2cncnc2)cc1F`: the “% Inhibition” value was -7% and the Z score was determined as 1.24.

Turning to `O=C1CC[C@@]2(CCCN(C(=O)c3ccc[nH]3)C2)CN1Cc1ccncc1`, the “% Inhibition” value worked out at 4% and the Z score was -0.84.

`CC(C)c1nccc(C(=O)NCc2nccn2C)n1`: the “% Inhibition” value was -24% and the Z score was 2.35.

Consider `Cc1cncc(C(=O)N(Cc2nnc(C)o2)C(C)(C)C)c1`, for which the “% Inhibition” value is -4% and the Z score was found to be 0.42.

Turning to `CC(C)N(CCO)Cc1nc(C(F)(F)F)cs1`, the “% Inhibition” value is given as -13% and the Z score came to 1.44.

As for `CC(C)CN1CC2(CCN(C(=O)Nc3ccccc3Cl)CC2)CC1=O`, the “% Inhibition” value is reported as -12% and the Z score was found to be 1.98.

On to `Cc1c(-c2cnn(C)c2)nc(N)c(C#N)c1-c1ccc(C(=O)O)cc1`, for which the “% Inhibition” value is reported as -13% and the Z score was 2.26.

Values taken from ChEMBL document CHEMBL4888484, “Replenishing the malaria drug discovery pipeline: Screening and hit evaluation of the MMV Hit Generation Library 1 (HGL1) against asexual blood stage Plasmodium falciparum ,using a nano luciferase reporter read-out” (2022).
